In this test the test system is Plasmodium falciparum NF54/iGP1_RE9H ulg8 stage V gametocytes. As to the kind of experiment: gametocyte viability (luciferase signal relative to DMSO control) (% of DMSO control); higher = less gametocytocidal activity, active = 50 or less. The conditions noted are these: exposure time: 72 h. The gist of the method: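 In 96-well plates holding nanolitre spots of compound (10 mM DMSO stocks), NF54/iGP1_RE9Hulg8 stage V gametocytes from day 12 were added at ~2.5% gametocytemia and 3% hematocrit in medium with 0.5% Albumax II, giving single wells at 10 µM or 1 µM. Incubation lasted 72 h at 37 °C. Each 90 µl sample then received 10 µl D-luciferin (30 mg/ml) before luminescence reading on an IVIS Lumina II, and viability was normalized to the mean of DMSO vehicle wells on the same plate.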

Gametocyte viability data for 57 compounds are collected here from the supplement of paper PMC12297408.

Molecules are shown by their SMILES. Counter-ions that a name gives are not always drawn. In all, about 1,300 compounds went through this assay and about 40 (3%) showed activity. The list shows a part of the results.

On to `Cc1cc(=O)oc2cc(O)ccc12` [Hymecromone], for which the gametocyte viability reads like this: (concentration: 1 µM) inactive: 88; (concentration: 10 µM) inactive: 83.9.
`COc1ccc(CN(CCN(C)C)c2ccccn2)cc1` [Pyrilamine maleate]: the gametocyte viability by setting is: (concentration: 1 µM) inactive: 90.9; (concentration: 10 µM) inactive: 100.
For `CCCNC(C)C(=O)Nc1ccccc1C` (centres undefined) [Prilocaine hydrochloride] the same measures were inactive: 94.6 and inactive: 89.1.
Regarding `CC(COc1ccccc1)N(CCCl)Cc1ccccc1` (centres undefined) [Phenoxybenzamine hydrochloride], the gametocyte viability (concentration: 1 µM) was inactive: 99.6 and the gametocyte viability (concentration: 10 µM) is inactive: 93.1.
The matching figures for `CC(=O)c1ccc(S(=O)(=O)NC(=O)NC2CCCCC2)cc1` [Acetohexamide]: inactive: 86.3 and inactive: 90.2.
For the compound `Cc1scc2c1N(C(=O)CN1CCN(C)CC1)c1ccccc1NC2=O` [Telenzepine dihydrochloride], the gametocyte viability (concentration: 1 µM) is inactive: 97.8 and the gametocyte viability (concentration: 10 µM) is inactive: 96.3.
For `Cn1c(=O)c2nc[nH]c2n(C)c1=O` [Theophylline monohydrate] the same measures were inactive: 90.1 and inactive: 97.
`c1ccc(C2CN3CCSC3=N2)cc1` (centres undefined) [Tetramisole hydrochloride]: the gametocyte viability reads like this: (concentration: 1 µM) inactive: 83.5; (concentration: 10 µM) inactive: 92.2.
Take `NCCCC[C@H](N[C@@H](CCc1ccccc1)C(=O)O)C(=O)N1CCC[C@H]1C(=O)O` [Lisinopril]: the gametocyte viability is inactive: 86.7 (concentration: 1 µM) and inactive: 90.4 (concentration: 10 µM).
Consider `O=C(Nc1cccc2c(=O)cc(-c3nnn[nH]3)oc12)c1ccc(OCCCCc2ccccc2)cc1` [Pranlukast], for which the gametocyte viability reads like this: (concentration: 1 µM) inactive: 92.7; (concentration: 10 µM) inactive: 89.2.
For `CC(C)(C)NC[C@H](O)COc1nsnc1N1CCOCC1` [Timolol maleate salt] the same measures were inactive: 91.2 and inactive: 89.6.
For `CCOC(=O)OC(C)OC(=O)[C@@H]1N2C(=O)[C@@H](NC(=O)[C@H](N)c3ccccc3)[C@H]2SC1(C)C` (some centres undefined) [Bacampicillin hydrochloride], the gametocyte viability by setting is: (concentration: 1 µM) inactive: 88.2; (concentration: 10 µM) inactive: 83.6.
For the compound `CCOC(=O)[C@H](CCc1ccccc1)N[C@H]1CCc2ccccc2N(CC(=O)O)C1=O` [Benazepril HCl], the gametocyte viability by setting is: (concentration: 1 µM) inactive: 88.2; (concentration: 10 µM) inactive: 86.5.
Take `COC1=C(OC)C(=O)C(CCCCCCCCCCO)=C(C)C1=O` [Idebenone]: the gametocyte viability reads like this: (concentration: 1 µM) inactive: 88; (concentration: 10 µM) inactive: 86.8.
The matching figures for `O=C1C(CC[S+]([O-])c2ccccc2)C(=O)N(c2ccccc2)N1c1ccccc1` (centres undefined) [Sulfinpyrazone]: inactive: 98 and inactive: 96.
As for `NS(=O)(=O)c1cc2c(cc1Cl)N=C(CSCc1ccccc1)NS2(=O)=O` [Benzthiazide], the gametocyte viability was inactive: 88.6 (concentration: 1 µM) and inactive: 91.6 (concentration: 10 µM).
For the compound `CC(=O)O[C@]1(C(C)=O)CC[C@H]2[C@@H]3C=C(C)C4=CC(=O)CC[C@@H]4[C@H]3CC[C@@]21C` [Nomegestrol acetate], the gametocyte viability runs as follows: (concentration: 1 µM) inactive: 81.7; (concentration: 10 µM) inactive: 75.6.
Turning to `CN1CCN(CCCN2c3ccccc3Sc3ccc(S(=O)(=O)N(C)C)cc32)CC1` [Thioproperazine dimesylate], the gametocyte viability reads like this: (concentration: 1 µM) inactive: 81.7; (concentration: 10 µM) inactive: 52.8.
With `C[C@@H](c1ncncc1F)[C@](O)(Cn1cncn1)c1ccc(F)cc1F` [Voriconazole], the gametocyte viability reads like this: (concentration: 1 µM) inactive: 81.9; (concentration: 10 µM) inactive: 82.8.
For `O=C(O)Cc1ccccc1Nc1c(Cl)cccc1Cl` [Diclofenac sodium] the same measures were inactive: 89.2 and inactive: 93.4.
In the case of `CC(=O)Oc1cc(C(F)(F)F)ccc1C(=O)O` [Triflusal], the gametocyte viability runs as follows: (concentration: 1 µM) inactive: 82.3; (concentration: 10 µM) inactive: 87.1.
The matching figures for `CS(=O)(=O)c1ccc([C@@H](O)[C@@H](CO)NC(=O)C(Cl)Cl)cc1` [Thiamphenicol]: inactive: 88.8 and inactive: 85.6.
With `CC(C)Cc1ccc([C@H](C)C(=O)O)cc1` [S-(+)-ibuprofen], the gametocyte viability is inactive: 86.6 (concentration: 1 µM) and inactive: 89.2 (concentration: 10 µM).
As for `C[C@]12C=CC(=O)C=C1CC[C@@H]1[C@@H]2[C@@H](O)C[C@@]2(C)[C@H]1CC[C@]2(O)C(=O)CO` [Prednisolone], the gametocyte viability is, setting by setting: (concentration: 1 µM) inactive: 100; (concentration: 10 µM) inactive: 91.9.
On to `O=c1[nH]cc(F)c(=O)[nH]1` [5-fluorouracil], for which the gametocyte viability reads like this: (concentration: 1 µM) inactive: 83.9; (concentration: 10 µM) inactive: 90.5.
As for `Nc1ccc(O)c(C(=O)O)c1` [Mesalamine], the gametocyte viability (concentration: 1 µM) is inactive: 84.2 and the gametocyte viability (concentration: 10 µM) is inactive: 80.8.
Turning to `CCN(CC)CCOC(=O)C1(c2ccc([N+](=O)[O-])cc2)CCCC1` [Nitrocaramiphen hydrochloride], the gametocyte viability is inactive: 90 (concentration: 1 µM) and inactive: 80.4 (concentration: 10 µM).
As for `Clc1ccccc1CN1CCc2sccc2C1` [Ticlopidine hydrochloride], the gametocyte viability (concentration: 1 µM) was inactive: 96 and the gametocyte viability (concentration: 10 µM) is inactive: 93.2.
Turning to `CN(C)CCCN1c2ccccc2CCc2ccc(Cl)cc21` [Clomipramine hydrochloride], the gametocyte viability (concentration: 1 µM) was inactive: 89.3 and the gametocyte viability (concentration: 10 µM) is inactive: 77.5.
Consider `CO[C@@]1(NC(=O)C2SC(=C(C(N)=O)C(=O)O)S2)C(=O)N2C(C(=O)O)=C(CSc3nnnn3C)CS[C@@H]21` (some centres undefined) [Cefotetan], for which the gametocyte viability reads like this: (concentration: 1 µM) inactive: 95.5; (concentration: 10 µM) inactive: 95.6.
Turning to `Cc1cc(NC(=O)C2=C(O)c3ccccc3S(=O)(=O)N2C)no1` [Isoxicam], the gametocyte viability reads like this: (concentration: 1 µM) inactive: 82.8; (concentration: 10 µM) inactive: 81.8.
For `Cc1cc(C(C)(C)CC(C)(C)C)ccc1OCCOCC[N+](C)(C)Cc1ccccc1` [Methyl benzethonium chloride] the same measures were inactive: 88.6 and active: 6.6.
Regarding `COC(=O)C1=C(C)NC(C)=C(C(=O)OC)C1c1ccccc1[N+](=O)[O-]` [Nifedipine], the gametocyte viability reads like this: (concentration: 1 µM) inactive: 91.8; (concentration: 10 µM) inactive: 80.7.
With `CO[C@@]1(NC(=O)C(C(=O)O)c2ccc(O)cc2)C(=O)N2C(C(=O)O)=C(CSc3nnnn3C)CO[C@@H]21` (some centres undefined) [Moxalactam disodium salt], the gametocyte viability was inactive: 86.7 (concentration: 1 µM) and inactive: 84.7 (concentration: 10 µM).
In the case of `C#C[C@]1(O)CC[C@H]2[C@@H]3CCC4=CC(=O)CC[C@@H]4[C@H]3CC[C@@]21C` [Norethindrone], the gametocyte viability (concentration: 1 µM) was inactive: 86.6 and the gametocyte viability (concentration: 10 µM) was inactive: 77.3.
With `C#C[C@]1(OC(C)=O)CC[C@H]2[C@@H]3CCC4=C[C@@H](OC(C)=O)CC[C@@H]4[C@H]3CC[C@@]21C` [Ethynodiol diacetate], the gametocyte viability was inactive: 89.2 (concentration: 1 µM) and inactive: 88.8 (concentration: 10 µM).
In the case of `Nc1ccc(S(=O)(=O)Nc2ncccn2)cc1` [Sulfadiazine], the gametocyte viability by setting is: (concentration: 1 µM) inactive: 101; (concentration: 10 µM) inactive: 99.
For `C#C[C@]1(O)CC[C@H]2[C@@H]3CCc4cc(OC)ccc4[C@H]3CC[C@@]21C` [Ethynylestradiol 3-methyl ether] the same measures were inactive: 98.5 and inactive: 94.7.
`CC(C)NCC(O)c1ccc(NS(C)(=O)=O)cc1` (centres undefined) [Sotalol hydrochloride]: the gametocyte viability is, setting by setting: (concentration: 1 µM) inactive: 83.1; (concentration: 10 µM) inactive: 92.1.
Take `CC(=O)N1CCN(c2ccc(OCC3COC(Cn4ccnc4)(c4ccc(Cl)cc4Cl)O3)cc2)CC1` (centres undefined) [Ketoconazole]: the gametocyte viability (concentration: 1 µM) is inactive: 90.3 and the gametocyte viability (concentration: 10 µM) was inactive: 90.
On to `CN(CCOc1ccc(NS(C)(=O)=O)cc1)CCc1ccc(NS(C)(=O)=O)cc1` [Dofetilide], for which the gametocyte viability (concentration: 1 µM) is inactive: 83.4 and the gametocyte viability (concentration: 10 µM) was inactive: 71.8.
Consider `CCN(CC)CCCC(C)Nc1c2ccc(Cl)cc2nc2ccc(OC)cc12` (centres undefined) [Quinacrine dihydrochloride dihydrate], for which the gametocyte viability was inactive: 113 (concentration: 1 µM) and active: 44.5 (concentration: 10 µM).
Regarding `CCCCCCCCCCCCCCCC[N+](C)(C)CCN(Cc1ccc(OC)cc1)c1ncccn1` [Thonzonium bromide], the gametocyte viability is inactive: 77 (concentration: 1 µM) and active: 1.76 (concentration: 10 µM).
For `CNC(=C[N+](=O)[O-])NCCSCc1ccc(CN(C)C)o1` [Ranitidine hydrochloride] the same measures were inactive: 94 and inactive: 95.9.
Consider `CC(C)C[C@H](NC(=O)[C@@H](O)[C@H](N)Cc1ccccc1)C(=O)O` [Ubenimex], for which the gametocyte viability runs as follows: (concentration: 1 µM) inactive: 81.9; (concentration: 10 µM) inactive: 80.6.
In the case of `COC(=O)[C@H]1[C@H]2C[C@@H]3c4[nH]c5cc(OC)ccc5c4CCN3C[C@H]2C[C@@H](OC(=O)c2cc(OC)c(OC)c(OC)c2)[C@@H]1OC` [Reserpine], the gametocyte viability reads like this: (concentration: 1 µM) inactive: 95.9; (concentration: 10 µM) inactive: 79.8.
The matching figures for `CCOC(=O)Nc1ccc2c(c1)N(C(=O)CCN1CCOCC1)c1ccccc1S2` [Moricizine hydrochloride]: inactive: 84.5 and inactive: 81.2.
As for `CC(C)(O/N=C(\C(=O)N[C@@H]1C(=O)N2C(C(=O)[O-])=C(C[n+]3ccccc3)CS[C@H]12)c1csc(N)n1)C(=O)O` [Ceftazidime pentahydrate], the gametocyte viability was inactive: 91.4 (concentration: 1 µM) and inactive: 98.9 (concentration: 10 µM).
The matching figures for `Cc1ccc(/C(=C\CN2CCCC2)c2ccccn2)cc1` [Triprolidine hydrochloride]: inactive: 93.8 and inactive: 94.3.
As for `Cc1c(Cl)cccc1Nc1ncccc1C(=O)O` [Clonixin Lysinate], the gametocyte viability (concentration: 1 µM) was inactive: 81.2 and the gametocyte viability (concentration: 10 µM) was inactive: 80.2.
On to `C[C@H]1[C@H](NC(=O)/C(=N\OC(C)(C)C(=O)O)c2csc(N)n2)C(=O)N1S(=O)(=O)O` [Aztreonam], for which the gametocyte viability was inactive: 96.9 (concentration: 1 µM) and inactive: 96 (concentration: 10 µM).
Take `CNCCC=C1c2ccccc2CCc2ccccc21` [Nortriptyline hydrochloride]: the gametocyte viability is, setting by setting: (concentration: 1 µM) inactive: 90; (concentration: 10 µM) inactive: 81.1.
On to `CCc1c2c(nc3ccc(OC(=O)N4CCC(N5CCCCC5)CC4)cc13)-c1cc3c(c(=O)n1C2)COC(=O)[C@]3(O)CC` [Irinotecan Hydrochloride], for which the gametocyte viability runs as follows: (concentration: 1 µM) inactive: 80.9; (concentration: 10 µM) inactive: 68.9.
In the case of `CC(=O)Nc1c(I)c(NC(C)=O)c(I)c(C(=O)O)c1I` [Diatrizoic acid dihydrate], the gametocyte viability (concentration: 1 µM) is inactive: 80.4 and the gametocyte viability (concentration: 10 µM) is inactive: 84.5.
For the compound `CCc1cc(C(N)=S)ccn1` [Ethionamide], the gametocyte viability is inactive: 83.3 (concentration: 1 µM) and inactive: 88.3 (concentration: 10 µM).
`CCC(=O)[C@@]1(C)[C@H](C)C[C@H]2[C@@H]3CCC4=CC(=O)C=C[C@]4(C)[C@H]3[C@@H](O)C[C@@]21C` [Rimexolone]: the gametocyte viability is inactive: 89.4 (concentration: 1 µM) and inactive: 85.3 (concentration: 10 µM).
For `O=C(N/N=C/c1ccc([N+](=O)[O-])o1)c1ccc(O)cc1` [Nifuroxazide] the same measures were inactive: 95.9 and active: 30.6.
